# Data reported in the supplement of paper PMC12889115.
# The list shows a part of the results. Rule as the data show it: active = 25% or less and inactive = the rest. Repeats are few or missing, and single values can be far off.
# Experiments:
# [1] = system: Salmonella enterica serovar Typhimurium SL1344; assay: bacterial growth OD600 after 18 h in MHB with 0.5 µg/mL polymyxin B; higher = more bacterial growth (less inhibition); conditions: 25 µM; polymyxin B 0.5 µg/mL; system: broth
# Procedure: (§1)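 Secondary screen of the 553 primary hits at 25 µM. (i) S. Typhimurium SL1344 grown in Mueller-Hinton broth with 0.5 µg/mL polymyxin B, OD600 read after 18 h. (ii) SAFIRE assay: RAW 264.7 macrophages infected with S. Typhimurium sifB::gfp (MOI 30); compound added 2 h post-infection; cells fixed at 18 h; GFP-positive pixel fraction per macrophage imaged by confocal microscopy and expressed as % of DMSO control.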
# [2] = system: Salmonella enterica serovar Typhimurium SL1344; assay: intramacrophage bacterial GFP load (SAFIRE), percent of DMSO control (% of DMSO); higher = more intracellular bacteria (less inhibition); conditions: 25 µM; system: infected RAW 264.7 macrophages
# Procedure: as §1
# 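For bacterial growth OD600 after 18 h in MHB with 0.5 µg/mL polymyxin B in this document: polymyxin B level opens the outer membrane while sparing the inner membrane, with novobiocin wells as reference growth inhibitor.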
# 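For intramacrophage bacterial GFP load (SAFIRE), percent of DMSO control in this document: compounds tested were the hits of an earlier 50 µM broth growth screen of a drug-like diversity library run with polymyxin B.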
structure (smiles),measurement,setting,value
Cc1ccc(OCCN(C)C(=O)C2CC23CCN(Cc2coc4ccccc4c2=O)CC3)cc1 (stereo not given),bacterial growth OD600,[1],0.531
same,intramacrophage bacterial GFP load,[2],active: 20.7
C=C(C)CN(CC)Cc1c(C(=O)N2CCc3ccccc3C2)nc2ccc(Cl)cn12,bacterial growth OD600,[1],-0.023
same,intramacrophage bacterial GFP load,[2],inactive: 62.7
COC(c1ccc2c(c1)CN(C(=O)c1scc3c1OCCO3)CCO2)C1CCCCC1 (stereo not given),bacterial growth OD600,[1],-0.002
same,intramacrophage bacterial GFP load,[2],inactive: 75.1
Cc1cccc(-c2cnc(-c3ccncc3)nc2C2CCN(C(=O)CC3=CCCCC3)CC2)c1,bacterial growth OD600,[1],0.001
same,intramacrophage bacterial GFP load,[2],inactive: 102
Cc1ccc2c(c1)CN(CC(=O)NCc1cnn(Cc3ccccc3)c1)CC(c1ccsc1)O2 (stereo not given),bacterial growth OD600,[1],-0.019
same,intramacrophage bacterial GFP load,[2],inactive: 54.4
